The whole screen tested about 44,000 compounds, of which about 340 (0.77%) were called active. This list was built around the results that the source calls inconclusive (neither active nor inactive); the mix of calls is not that of the screen. The call rests on the fitted dose curve; in most records, active means well fitted inhibition curve with a large enough effect; inconclusive means small, poorly fitted or top-dose-only effect; inactive means flat fitted curve, though single readings scatter. No potency is given beside an inconclusive call; the fits are too rough.
Assay: Acumen qHTS Assay for Inhibitors of the mTORC1 Signaling Pathway in MEF (Tsc2-/-, p53-/-) Cells: Sytravon; further: nearly all actives have a fitted effect of over 50% in size
Conditions: phospho-rpS6 immunofluorescence/PI, 24 h; series mostly up to 38.3 µM
Summary of the method: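 Tsc2-/-, p53-/- mouse embryonic fibroblasts (empty-vector line) exposed to compound 24 hrs at 37 C, fixed, immunostained for phospho-rpS6 and counterstained with propidium iodide. Acumen laser scanning gives % positive cells from Alexa 488/PI ratio, thresholded using 7.5 nM rapamycin; PI count gives viability.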
Potency means the concentration at half of the fitted maximal effect; tags describe the fitted curve by direction and shape.

| Compound | Potency |
| --- | --- |
| CCCCCOc1ccc(NC(=O)Cn2c(-c3cncs3)nc3ccccc32)cc1 | inconclusive [falling, single point] |
| Cc1cc(Nc2cccc(C(F)(F)F)c2)nc2ccc(NC(=O)c3cccnc3)cc12 | inconclusive [falling, single point] |
| Cc1ccc(NC(=O)Cn2cnc3c(oc4ccccc43)c2=O)cc1 | inconclusive [falling, single point] |
| Cc1ccc(-n2c(SCc3ccccc3C)nc3[nH]ncc3c2=O)cc1C | inconclusive [falling, single point] |
| COc1ccc2c(c1)Cc1sc(NC(=O)c3ccc(Cl)cc3)nc1-2 | inconclusive [falling, partial curve, poor fit] |
| Cc1ccccc1-c1noc(-c2ccc(N3CCCC3)c([N+](=O)[O-])c2)n1 | inactive |
| O=C(NCc1cccnc1)C1CCN(Cc2cc3ccccc3n2Cc2ccccc2)CC1 | inconclusive [falling, single point] |
| CCOc1ccc(CCNC(=O)Cn2nc(CC)n3c(cc4c(OC)cccc43)c2=O)cc1OCC | inconclusive [falling, partial curve] |
| COc1cc(-c2nc3ccc(Cl)cn3c2Nc2ccc3c(c2)OCO3)ccc1O | inactive |
| O=C(c1ccc(CS(=O)c2ccccc2Cl)o1)N1CCN(c2cccc(C(F)(F)F)c2)CC1 (stereo unspecified) | inconclusive [falling, full curve] |
| O=S(=O)(c1ccccc1)c1nc(-c2cccs2)oc1N1CCCCC1 | inactive |
| Cc1ccccc1OCC(=O)Nc1c(C)ccc2nsnc12 | inconclusive [falling, single point] |
| COc1ccc(NC(=O)CCCS(=O)(=O)c2nc(-c3ccccc3OC)cc(C(F)(F)F)n2)c(OC)c1 | inconclusive [falling, single point] |
| Cc1ccc(C)c(CN2CCC(CNC(=O)C(CC(C)C)N3Cc4ccccc4C3=O)CC2)c1 (stereo unspecified) | inconclusive [falling, single point] |
| CCOc1ccc(-n2c(-c3ccc(Br)cc3)cc3c2CC(C)(C)CC3=O)cc1 | inactive |
| O=C(CS(=O)(=O)c1nc(-c2ccc(Cl)cc2)cn1-c1ccccc1)Nc1cccc(Cl)c1 | inconclusive [falling, single point] |
| Cc1ccc(NC(=O)c2ccc(F)c(S(=O)(=O)NCCc3ccccc3)c2)cc1F | inconclusive [falling, single point] |
| COc1cccc(C2C(C(N)=O)=C(C)Nc3nc(CCCO)nn32)c1 (stereo unspecified) | inconclusive [falling, partial curve, poor fit] |
| CCOC(=O)c1c(C)[nH]c(CCC(=O)NCc2cc(Br)ccc2OC)c1C | inconclusive [falling, partial curve, poor fit] |
| Cc1nnc(N2CCCC(C(=O)Nc3cc(F)ccc3F)C2)c2nn(-c3ccccc3)c(C)c12 (stereo unspecified) | inconclusive [falling, single point] |
| CCCCN(CC)CCCNC(=O)c1ccc2c(c1)N(Cc1ccc(C)cc1)C(=O)c1ccccc1S2 | inconclusive [falling, single point] |

| Compound | Potency |
| --- | --- |
| O=C(CCCc1nc(-c2ccc(Cl)cc2)no1)NCc1ccco1 | inactive |
| Cc1ccccc1CN1C(=O)C(O)(c2c[nH]c3ccccc23)c2cc(Cl)ccc21 (stereo unspecified) | inconclusive [falling, single point] |
| CCCCN1C(C(=O)c2ccccc2)=C(OC(=O)CC)c2ccccc2S1(=O)=O | inconclusive [falling, single point] |
| COc1ccc(C)cc1NS(=O)(=O)c1ccc2c(c1)CCCN2C(C)=O | inconclusive [falling, partial curve, poor fit] |
| O=C(Nc1cc(C(F)(F)F)ccc1Cl)c1noc2c1CCCCC2 | inconclusive [falling, single point] |
| O=C(Nc1ccc(F)c(F)c1)c1cc(S(=O)(=O)N2CCc3ccccc32)ccc1F | inconclusive [falling, single point] |
| Cc1ccc(CNc2nc3c(c(=O)n(C)c(=O)n3C)n2Cc2ccc(Cl)cc2)cc1 | inconclusive [falling, single point] |
| Cc1cccc(Cn2c(=O)n(CCCCC(=O)NCc3ccc4c(c3)OCO4)c(=O)c3ccccc32)c1 | inconclusive [activator, partial curve, poor fit] |
| CCN(C(=O)c1sc2cc(OC)ccc2c1Cl)c1ccccc1 | inconclusive [falling, single point] |
| CCCCCNC(=O)c1ccc2c(c1)ncn2-c1cccc(C)c1 | inconclusive [falling, partial curve, poor fit] |
| COc1ccccc1CN1CCC(CNS(=O)(=O)c2cc(-c3onc(C)c3C)ccc2OC)CC1 | inconclusive [falling, single point] |
| CCS(=O)(=O)N1CC(=O)N(c2ccc(Cl)cc2C)C(C)(C(=O)NC2CCCCC2)C1 (stereo unspecified) | inconclusive [falling, partial curve, poor fit] |
| CC(=O)Nc1ccc(-c2nnc3n(Cc4ccc(C)cc4)c(=O)c4ccccc4n23)cc1 | inactive |
| CCCCS(=O)(=O)c1oc(-c2cccs2)nc1S(=O)(=O)c1ccc(F)cc1 | active: 2.07 µM |
| N#CC1=C2SCN(C3CCCCC3)CN2C(=O)CC1c1ccc(Br)cc1 (stereo unspecified) | inactive |
| COc1ccc(N(CC(=O)N2CCc3ccccc3C2)S(=O)(=O)c2ccc(C)cc2)cc1Cl | inconclusive [falling, partial curve, poor fit] |
| O=C(Nc1ccc(Br)cc1)c1cc(-c2cccs2)nc2ccccc12 | inconclusive [falling, partial curve] |
| Cc1ccc(NC(=O)CN2C(=O)COc3ccc(S(=O)(=O)N4CCCCCC4)cc32)cc1Cl | inconclusive [falling, single point] |
| CC1CCCN(CCCNC(=O)c2ccc3c(c2)N(Cc2cccc(Cl)c2)C(=O)c2ccccc2S3(=O)=O)C1 (stereo unspecified) | inconclusive [falling, single point] |
| CCc1ccccc1NS(=O)(=O)c1ccc2[nH]cc(C(=O)NC3CCCC3)c(=O)c2c1 | inconclusive [falling, single point] |
| COc1ccc(C(=O)CC2(O)C(=O)N(CCc3ccccc3)c3ccc(Br)cc32)cc1OC (stereo unspecified) | inconclusive [falling, partial curve, poor fit] |

| Compound | Potency |
| --- | --- |
| COc1cccc(-n2c(=O)c3c4c(sc3n(Cc3ccccc3C#N)c2=O)CCCC4)c1 | inactive |
| COc1ccc(S(=O)(=O)N2CCC(c3nnnn3-c3ccccc3)CC2)cc1OC | inconclusive [falling, single point] |
| Cc1cccc(Cn2c(CNC(=O)c3ccccc3)nc3ccccc32)c1 | inconclusive [falling, single point] |
| Cc1cc(C)cc(Nc2ncnc3sc4c(c23)CCCC4)c1 | inconclusive [falling, partial curve, poor fit] |
| O=C(NC1CCCC1)c1ccc(CSc2nc3cccnc3n2Cc2ccccc2F)cc1 | inconclusive [falling, single point] |
| O=C(Cn1c(-c2cccs2)cc2ccccc21)NCCCN1CCN(c2ccc(F)cc2)CC1 | inconclusive [falling, single point] |
| C#CCN1C(=O)C(O)(CC(=O)c2ccc(OC)c(OC)c2)c2cc(Br)ccc21 (stereo unspecified) | active: 5.21 µM |
| Cc1ccc(CNC(=O)CSc2c3c(nc4ccc(Cl)cc24)CCCC3)cc1 | inactive |
| COc1ccc(NC(=O)CSc2c3c(nc4ccc(Cl)cc24)CCCC3)cc1Cl | inactive |
| Cc1ccc(C)c(NC(=O)CCc2nc(-c3ccc(C(C)(C)C)cc3)no2)c1 | inconclusive [falling, single point] |
| CCC1CCCCN1CCCNC(=O)c1ccc2c(c1)N(Cc1ccccc1F)C(=O)c1ccccc1S2(=O)=O (stereo unspecified) | inconclusive [falling, partial curve, poor fit] |
| Cc1ccc(C(=O)Nc2ccc3c(c2)N(C)C(=O)c2ccccc2S3)cc1 | inactive |
| CCCS(=O)(=O)N1CC(=O)N(c2ccccc2F)C(C)(C(=O)NC2CCCCCC2)C1 (stereo unspecified) | inconclusive [falling, single point] |
| Fc1ccc(Nc2nc3nonc3nc2Nc2cccc(C(F)(F)F)c2)cc1 | inconclusive [falling, partial curve, poor fit] |
| O=C(CSc1nc(-c2ccccc2)[nH]c1-c1ccccc1)Nc1ccc2c(c1)OCO2 | inconclusive [falling, single point] |
| CCOc1ccc(-c2cc3c(=O)n(CC(=O)NCc4ccc(OC)cc4)ccn3n2)cc1 | inconclusive [activator, single point] |
| CCN(CC)CCCNC(=O)c1ccc2c(c1)N(Cc1c(F)cccc1Cl)C(=O)c1ccccc1S2 | inconclusive [falling, single point] |
| CCC(=O)N1CCc2cc(S(=O)(=O)NC(CC(C)C)C(=O)NCCc3cccc(C)c3)ccc21 (stereo unspecified) | inconclusive [falling, single point] |
| Cc1ccc(NC(=O)CSc2ncc(S(=O)(=O)c3ccc(C(C)C)cc3)c(=O)[nH]2)cc1C | inconclusive [falling, single point] |

— PubChem BioAssay AID493208 (National Center for Advancing Translational Sciences (NCATS), 2011)
